# Source: the supplement of paper PMC7826260
# The list shows a part of the results. Viral Rep nickase domains cut single-stranded DNA in vitro (3 µM enzyme, 1 h, 37 °C); shown is the middle of each 90-letter strand. The score is log2 (uncut reads / reads without enzyme); more negative means more cut, near 0 not cut, and no call is made. The scaling is to total reads; values above 0 arise when much of the pool is cut.
# How the values were obtained:
# Assay in all cases: uncleaved DNA left, log2 of reads against the no-enzyme library (log2 ratio); higher = less cleavage (more negative = more Rep cleavage of the k-mer); sequences stand for … in CTCGTCCG…ACCGGAGA
# [1] = system: T1, Rep nickase domain of Muscovy duck circovirus
# T1 sequence (residues 1-111, tag not shown): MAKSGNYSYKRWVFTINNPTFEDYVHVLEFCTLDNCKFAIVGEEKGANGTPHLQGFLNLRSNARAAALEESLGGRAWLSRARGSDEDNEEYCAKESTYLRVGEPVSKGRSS
# Description: (§1)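 A pool of 90-nt single-stranded DNAs with seven random bases just before the constant AC of the nick site (name = the seven bases) was cut by 3 µM recombinant His6-SUMO-tagged Rep nickase domain (300 nM DNA, 50 mM HEPES pH 8.0, 50 mM NaCl, 1 mM MnCl2, 1 h, 37 °C, three replicates). Uncut DNA was amplified and sequenced.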
# [2] = system: T2, Rep nickase domain of banana bunchy top virus
# T2 sequence (residues 1-94, tag not shown): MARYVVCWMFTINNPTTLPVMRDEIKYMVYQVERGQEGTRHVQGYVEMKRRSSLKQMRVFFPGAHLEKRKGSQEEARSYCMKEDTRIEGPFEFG
# Description: as §1
# [3] = system: T3, Rep nickase domain of cabbage leaf curl virus
# T3 sequence (residues 1-116, tag not shown): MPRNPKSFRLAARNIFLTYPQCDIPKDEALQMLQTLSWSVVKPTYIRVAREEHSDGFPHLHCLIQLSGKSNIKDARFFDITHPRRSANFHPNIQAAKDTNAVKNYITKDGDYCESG
# Description: as §1
# [4] = system: T4, Rep nickase domain of chickpea chlorotic dwarf virus
# T4 sequence (residues 1-124, tag not shown): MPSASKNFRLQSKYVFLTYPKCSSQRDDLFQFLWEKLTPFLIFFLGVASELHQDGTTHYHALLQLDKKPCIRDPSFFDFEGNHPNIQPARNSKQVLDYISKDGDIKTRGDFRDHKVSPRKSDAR
# Description: as §1
# [5] = system: T5, Rep nickase domain of faba bean necrotic yellows virus
# T5 sequence (residues 1-98, tag not shown): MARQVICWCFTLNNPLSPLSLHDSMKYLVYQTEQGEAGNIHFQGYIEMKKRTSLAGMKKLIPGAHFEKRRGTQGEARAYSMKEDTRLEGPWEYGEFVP
# Description: as §1
# [6] = system: T6, Rep nickase domain of maize striate mosaic virus
# T6 sequence (residues 1-117, tag not shown): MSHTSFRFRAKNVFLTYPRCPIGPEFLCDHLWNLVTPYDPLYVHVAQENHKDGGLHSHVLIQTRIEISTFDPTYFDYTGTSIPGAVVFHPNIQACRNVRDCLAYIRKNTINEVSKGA
# Description: as §1
# [7] = system: T7, Rep nickase domain of porcine circovirus 2
# T7 sequence (residues 2-116, tag not shown): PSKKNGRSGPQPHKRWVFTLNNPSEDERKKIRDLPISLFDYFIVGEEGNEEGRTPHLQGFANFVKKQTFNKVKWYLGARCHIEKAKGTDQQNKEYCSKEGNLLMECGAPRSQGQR
# Description: as §1
# [8] = system: T8, Rep nickase domain of tomato golden mosaic virus
# T8 sequence (residues 1-124, tag not shown): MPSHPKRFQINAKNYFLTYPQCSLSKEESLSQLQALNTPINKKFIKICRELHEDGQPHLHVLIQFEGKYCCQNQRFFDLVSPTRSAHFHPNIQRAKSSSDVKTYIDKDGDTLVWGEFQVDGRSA
# Description: as §1
# [9] = system: T9, Rep nickase domain of tomato yellow leaf curl virus
# T9 sequence (residues 1-136, tag not shown): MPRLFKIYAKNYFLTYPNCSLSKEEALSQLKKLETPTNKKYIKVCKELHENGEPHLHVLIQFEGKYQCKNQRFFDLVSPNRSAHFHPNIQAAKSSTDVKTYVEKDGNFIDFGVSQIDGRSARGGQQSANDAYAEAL
# Description: as §1
# [10] = system: T10, Rep nickase domain of wheat dwarf virus
# T10 sequence (residues 1-137, tag not shown): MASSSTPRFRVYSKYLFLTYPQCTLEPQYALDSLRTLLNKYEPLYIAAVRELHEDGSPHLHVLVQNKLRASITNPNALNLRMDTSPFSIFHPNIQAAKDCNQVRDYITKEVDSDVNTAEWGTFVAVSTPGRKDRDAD
# Description: as §1
Sequence,uncleaved DNA left (log2) [1],uncleaved DNA left (log2) [2],uncleaved DNA left (log2) [3],uncleaved DNA left (log2) [4],uncleaved DNA left (log2) [5],uncleaved DNA left (log2) [6],uncleaved DNA left (log2) [7],uncleaved DNA left (log2) [8],uncleaved DNA left (log2) [9],uncleaved DNA left (log2) [10]
TCGATTG,-0.0329,0.00972,-0.0411,0.683,-0.0316,1.47,0.0921,0.129,-0.0276,0.0937
AGGTCTT,-0.651,0.0529,0.186,-0.747,-0.138,1.13,-3.23,0.0713,0.215,0.014
TCTTGCT,-0.172,-0.0491,-0.831,-1.15,0.03,-1.19,-0.975,-0.133,-0.0288,-0.057
AGGCATG,0.11,0.0924,0.109,0.64,0.0667,0.693,0.163,0.0206,0.0054,0.133
TAGTGAT,-0.237,-0.56,-0.298,0.135,-0.526,1.65,-3.57,-0.0295,-0.0716,0.0161
ATAGCGG,-0.0087,0.0207,-0.197,0.135,0.0498,-0.455,0.19,0.0111,-0.0672,-0.0314
CAATAAA,-0.176,0.0251,-0.377,-1.05,-0.054,-0.827,-0.165,-0.0894,-0.216,-0.0873
ACTTCTT,-1.79,-0.614,-0.415,-2.93,0.0729,-0.961,-3.03,-0.167,-0.21,-0.182
CGTCTAC,0.0732,0.058,-0.032,-1.22,-0.0851,-0.201,0.0229,-0.0904,0.0669,-0.109
GGGGTGG,0.0739,0.0322,0.713,1.54,0.00433,1.97,0.18,0.0721,0.0158,0.0411
GCGGGAA,0.0469,0.129,0.658,1.43,0.213,1.76,0.181,-0.0353,0.0189,0.0987
TTATGCT,-3.16,-0.0895,-3.19,-2.84,0.0573,-2.22,-2.84,-0.871,0.153,-0.68
CTACCCG,-0.0276,-0.0439,-0.945,-1.43,-0.00561,-0.917,-1.07,0.0463,-0.0714,-0.174
GGTCAAT,-0.00115,0.0741,0.637,1.65,-0.0178,2.11,0.0287,0.0999,0.148,0.0944
TCAGTTG,0.0991,0.067,0.0281,0.0447,0.0762,-0.4,0.234,0.107,0.027,0.121
CTACGTC,0.0351,-0.0215,0.0153,-0.867,-0.164,-0.756,-0.0354,-0.0563,-0.128,-0.0466
CGACGAG,0.095,-0.00251,-0.0448,0.398,0.0107,0.293,0.0341,-0.0646,-0.0752,0.00821
TCATTTG,-0.0801,0.0873,-0.58,-1.03,-0.0875,-1.36,0.116,-0.116,-0.0753,-0.202
TACTTCG,-0.0817,-0.256,-0.994,-0.59,-0.15,-1.33,0.115,-0.2,-0.149,-0.152
GTCTTTT,-0.309,-0.0113,0.299,0.599,0.052,1.71,-1.24,0.0725,0.0357,0.0269

Sequence,uncleaved DNA left (log2) [1],uncleaved DNA left (log2) [2],uncleaved DNA left (log2) [3],uncleaved DNA left (log2) [4],uncleaved DNA left (log2) [5],uncleaved DNA left (log2) [6],uncleaved DNA left (log2) [7],uncleaved DNA left (log2) [8],uncleaved DNA left (log2) [9],uncleaved DNA left (log2) [10]
AGGTGGC,0.0954,-0.00104,0.146,0.178,0.017,-0.476,0.272,0.0817,0.0686,0.0656
CGCACCA,0.0454,-0.0156,0.00557,-0.7,0.000283,-0.246,-0.109,-0.00969,-0.00555,0.0534
TATCGGA,-0.0154,0.067,0.168,0.279,-0.0827,-0.0729,0.0569,0.0904,0.0507,-0.0499
GTAGGGG,0.123,0.0371,0.411,0.776,0.046,0.65,0.225,0.141,0.0931,0.143
GTATCAC,-0.0991,-0.0419,0.249,0.812,-0.113,1.52,0.00123,-0.053,0.0074,0.00629
TCCTTCT,-1.21,-0.0733,-0.0792,-2.42,-0.0173,-0.781,-2.9,-0.167,-0.116,-0.132
AAATCCG,0.117,0.0505,-0.804,0.231,0.151,-0.964,0.285,0.063,0.0854,-0.0321
CCCCCCG,-0.105,0.0337,-0.76,0.147,-0.0625,-0.74,-0.0542,-0.122,-0.0786,-0.136
GCCGTCA,-0.135,-0.0626,0.175,0.0541,-0.0401,0.167,0.0517,-0.0122,-0.0543,-0.0729
GAATACC,0.0184,0.0703,-1.36,-2.02,0.0292,0.447,-0.245,-0.00171,0.0386,-0.0745
TAACCTG,-0.00946,-0.0161,-0.0879,-0.913,0.0388,0.65,-0.287,-0.0939,0.00333,-0.00267
ACAGATT,-0.0436,-0.188,-0.257,-2.42,0.0368,-0.695,-0.22,-0.0317,-0.0848,-0.183
TGGACGA,0.0148,0.00483,0.661,1.75,-0.0983,1.86,0.104,-0.00433,-0.00979,0.0869
GGAACTG,0.121,0.198,0.207,1.08,-0.0021,1.8,0.206,0.108,0.0331,0.12
GGGTTCA,0.106,0.141,0.792,1.9,0.0417,2.21,0.195,0.0394,0.143,0.201
GTTACCA,0.124,0.126,0.428,0.903,0.0624,1.9,0.143,0.163,0.189,0.203
TTTTAAG,0.0334,0.0173,-0.785,-0.507,0.0669,-0.978,0.216,0.0897,-0.00125,-0.0347
ATCCCAG,0.108,0.0975,-0.54,-0.561,0.0955,-0.866,0.268,0.157,0.113,0.00117
CATTTCT,-4.13,-3.97,-0.887,-3.06,-0.293,-1.37,-4.21,-0.369,-0.0776,-0.328
GCGAGAA,0.0414,0.0855,0.392,0.763,0.195,0.537,0.0243,0.0794,0.0172,0.092

Sequence,uncleaved DNA left (log2) [1],uncleaved DNA left (log2) [2],uncleaved DNA left (log2) [3],uncleaved DNA left (log2) [4],uncleaved DNA left (log2) [5],uncleaved DNA left (log2) [6],uncleaved DNA left (log2) [7],uncleaved DNA left (log2) [8],uncleaved DNA left (log2) [9],uncleaved DNA left (log2) [10]
GGCGGCA,0.0554,0.0269,0.539,1.39,0.0111,1.96,0.185,0.0465,-0.0603,-0.102
GAAAGTT,0.0483,-0.0869,-1.89,-2.27,-0.0292,0.412,-1.01,-0.183,0.0141,-0.582
CCCGTAG,0.172,0.148,-0.632,-0.231,0.0421,-1.31,0.223,0.042,0.026,0.0422
GATTTCT,-2.9,-2.67,0.311,-1.42,0.0945,0.894,-3.09,0.152,0.176,0.146
TTGACCT,-0.0927,0.0099,0.0118,0.123,-0.0226,0.635,-0.0604,-0.0142,0.0822,0.0768
GTGTCAG,-0.0113,0.114,0.16,0.464,-0.0179,-0.0169,0.171,0.0263,0.0941,-0.0327
GCCCAGT,-0.125,0.0494,0.0719,0.156,-0.0857,-0.219,0.0404,0.0642,0.0541,0.124
ATCTAAT,-1.94,-0.819,-0.282,-0.968,-0.182,-0.561,-3.34,0.0453,-0.0942,-0.0793
GGGGAGC,0.283,0.222,1.04,2,0.109,2.39,0.428,0.197,0.17,0.191
GCCGTAC,0.0625,-0.112,0.143,0.16,-0.068,0.119,-0.032,0.0304,-0.0533,-0.0298
TGCACAT,0.109,0.0385,0.595,1.34,-0.0709,1.52,0.142,-0.035,0.123,0.142
AGTCCAG,0.143,0.136,-0.413,-0.266,0.101,-0.874,0.134,0.104,0.204,0.107
AACCGCG,-0.000114,0.031,-0.451,0.872,0.111,0.0377,0.011,-0.0619,0.106,0.0216
AATTTAT,-3.42,-3.29,-0.0718,-1.61,0.0415,-0.285,-3.74,0.0364,-0.00886,0.0954
CTGCTTG,0.245,0.0332,-0.393,-0.864,0.063,-0.891,0.158,0.127,0.0894,-0.0158
GTACAAC,-0.00762,0.174,0.371,0.524,0.015,1.6,0.131,0.0554,0.188,0.114
TGCTCCT,-0.397,-0.218,0.0235,-1.2,-0.0611,0.0841,-1.21,-0.131,-0.0938,-0.232
GTAACAA,-0.0189,0.101,0.271,0.916,0.00874,1.66,0.14,0.117,0.134,0.129
AGACGAC,0.187,0.193,0.228,0.732,0.186,1.1,0.192,0.121,0.0637,0.135
ATGCGCA,-0.0184,0.0602,-0.441,-0.454,-0.0181,-0.995,0.0125,-0.0584,-0.00294,0.000879
